From PubChem BioAssay AID588501 (NMMLSC, 2011)
The campaign covered roughly 360,000 compounds. About 420 (0.12%) were called active. Inconclusive results, whose numbers are uncertain, are shown with a selection of clear calls. No stated cut-off is given here; in the data, active means inhibition above about 30%; inconclusive means no clear call, values can overlap the other calls; inactive means below that.

What follows are compounds tested against Lethal factor (Bacillus anthracis) (UniProt P15917) (assay: anthrax lethal factor cleavage blockers – biochemical, multiplex microsphere, MLPCN library, primary screen (AID 588501; further: plate controls were buffer without enzyme for full effect and enzyme alone for no effect)). Conditions: multiplex microsphere protease cleavage assay, LF; at 10 µM; hits give high values.
Chain of UniProt P15917 (P15917 whole entry, looked up): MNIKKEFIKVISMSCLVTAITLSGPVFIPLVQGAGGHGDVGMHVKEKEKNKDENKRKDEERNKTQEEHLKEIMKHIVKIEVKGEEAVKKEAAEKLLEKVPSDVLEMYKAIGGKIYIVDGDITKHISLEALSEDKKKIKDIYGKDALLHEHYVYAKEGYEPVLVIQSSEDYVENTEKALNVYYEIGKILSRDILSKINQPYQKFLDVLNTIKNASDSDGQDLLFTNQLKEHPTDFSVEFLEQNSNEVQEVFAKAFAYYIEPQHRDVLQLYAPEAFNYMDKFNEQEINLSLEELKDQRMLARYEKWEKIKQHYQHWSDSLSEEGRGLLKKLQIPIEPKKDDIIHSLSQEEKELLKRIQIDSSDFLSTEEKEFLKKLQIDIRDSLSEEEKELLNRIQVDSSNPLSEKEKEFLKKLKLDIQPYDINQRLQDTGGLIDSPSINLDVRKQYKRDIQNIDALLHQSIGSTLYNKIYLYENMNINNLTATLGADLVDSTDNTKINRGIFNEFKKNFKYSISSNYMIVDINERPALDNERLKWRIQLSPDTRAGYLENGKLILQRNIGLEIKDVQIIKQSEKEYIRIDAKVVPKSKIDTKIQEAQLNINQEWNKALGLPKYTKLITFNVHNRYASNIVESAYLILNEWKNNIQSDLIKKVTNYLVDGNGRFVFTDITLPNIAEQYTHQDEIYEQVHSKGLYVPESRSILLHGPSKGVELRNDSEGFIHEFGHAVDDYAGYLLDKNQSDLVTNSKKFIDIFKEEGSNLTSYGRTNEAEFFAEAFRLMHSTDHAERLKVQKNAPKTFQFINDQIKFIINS

Structure (SMILES) | inhibition
COc1ccc2c(c1)CCCN2S(=O)(=O)c1ccc(Cl)cc1 | active: 37.3%
COC(=O)c1ccc(OC)c(CSc2nnc(COc3cccc(C)c3)o2)c1 | inconclusive: -25.5%
COc1ccc(C(=O)Nc2nc(-c3ccc([N+](=O)[O-])cc3)c(-c3ccccc3)s2)cc1 | active: 30.6%
CCOC(=O)c1c(NC(=S)Nc2ccc(Cl)cc2)sc2c1CCN(C)C2 | active: 34.1%
CCOC(=O)c1cnc2c(C(=O)OCC)cnn2c1N | active: 31.4%
O=C(COC(=O)CSc1ccccc1)NCCNC(=O)COC(=O)CSc1ccccc1 | inconclusive: -2.1%
N#Cc1ccccc1OCC(=O)NNC(=O)CNC(=O)c1cccc(Br)c1 | inconclusive: 1.2%
O=C(Nc1ccccc1)C1CC=CCC1C(=O)OCC1CCCO1 (configuration not stated) | inconclusive: -12.6%
COc1ccc(C(CNC(=O)c2ccc(C)c(S(=O)(=O)N3CCCCC3)c2)N2CCCC2)cc1 (configuration not stated) | active: 56.1%
COc1ccc2c(c1)C1(Nc3ccccc3-c3nc4ccccc4n31)C(=O)N2 (configuration not stated) | inactive: 2.1%
CN(C(=O)c1ccc2c(c1)S(=O)(=O)N=C1CCCCCN12)c1ccccc1 | inconclusive: 4.3%
CC1(C(=O)Nc2c(F)c(F)c(F)c(F)c2F)CC1(Br)Br (configuration not stated) | active: 31.1%
O=C(c1ccco1)N1CCN(Cc2cc(=O)c(OCc3cccc(Cl)c3)co2)CC1 | inconclusive: -1.8%
Cc1nn(C(C)C)c(C)c1CN1CCCC(CCC(=O)NCc2ccccc2F)C1 (configuration not stated) | inconclusive: -1.3%
Cc1cc(O)c(Sc2ccccc2)c(=O)o1 | inconclusive: -3.8%
CCOC(=O)C1(C)CCN1C(=O)CSc1ccccc1 (configuration not stated) | inactive: -8%
COc1ccc(C2(C)NC(=O)N(CC(=O)Nc3ccc(C)cc3Br)C2=O)cc1OC (configuration not stated) | inactive: 1.4%
CCN(CC(=O)Nc1c(F)cccc1F)C(=O)c1cc2c(cc1Cl)N1CCCCCC1=NS2(=O)=O | inconclusive: -4.2%
Cc1ccc(C(C)NC(=O)c2ccco2)cc1 (configuration not stated) | inconclusive: -10.1%

Structure (SMILES) | inhibition
COc1cc(OC)cc(C(=O)Nc2ccc(S(=O)(=O)Nc3cnc4ccccc4n3)cc2)c1 | inconclusive: -18.2%
COCCN(C(=O)CSc1nnc(-c2ccc(C(C)(C)C)cc2)n1N)c1c(N)n(CC(C)C)c(=O)[nH]c1=O | inconclusive: 2%
CC(=O)Nc1ccc(S(=O)(=O)N(C)CC(=O)Nc2ccccc2N2CCCC2)cc1 | inconclusive: -2.3%
Cc1cccc(C(=O)OCC(=O)N(C)c2ccccc2)c1C | inactive: -1.3%
NCC12CC3CC(C1)CC(CN)(C3)C2 | inactive: -3.2%
CCOC(=O)N1CCN(C(=O)c2cc(C)c3c(C)nn(-c4ccccc4)c3n2)CC1 | inactive: 1.2%
CCCC(=O)Nc1ccc2c(c1)C(=O)NC2=O | inactive: -3.8%
CCn1c(SCC(=O)N2CCC(C)CC2)nnc1-c1ccc(S(=O)(=O)N2CCN(C)CC2)cc1 | inconclusive: -1.4%
O=C(CN1CCCCCC1)Nc1c(Cl)cc(Cl)cc1Cl | active: 37.6%
COc1ccccc1C(=O)NCCC(=O)N1CCN(S(=O)(=O)c2cccc(Cl)c2)CC1 | inconclusive: -1%
CCN1CCC2(CC1)Oc1c(OC)cccc1C1CC(c3cccnc3)=NN12 (configuration not stated) | inconclusive: -14.2%
OCCNC(=S)Nc1ccc2c(c1)OCCO2 | active: 30%
COCCNC(=O)C1(C)CCN(C(=O)c2cc(C(C)(C)C)nn2C)C1 (configuration not stated) | inactive: -8.3%
CCOC(=O)N1CCN(c2c(NCCN3CCN(Cc4ccccc4)CC3)c(=O)c2=O)CC1 | inactive: -3.4%
CC(C)(C)NC(=O)C(c1ccc(F)cc1)N(Cc1ccco1)C(=O)CCC(=O)Nc1nccs1 (configuration not stated) | inactive: 1.5%
O=C(NCc1ccc(F)cc1)C1C2C=CC3(CN(Cc4cccnc4)C(=O)C13)O2 (configuration not stated) | inactive: -1.1%
O=C(CCNS(=O)(=O)c1ccccc1)OCC(=O)c1ccc[nH]1 | inconclusive: -2.2%
Cc1cccc(NC(=S)N(C)C2(c3ccccc3Cl)CCCCC2=O)c1 (configuration not stated) | inactive: -0.9%
CSC1=NS(=O)(=O)c2c(C)nn(C)c2S1 | inconclusive: -12.4%

Structure (SMILES) | inhibition
O=C(O)c1cc(-n2cccc2)ccc1N1CCOCC1 | inconclusive: -14.3%
COc1ccc(C(=O)NNC(=O)CSc2nnc(-c3ccc(O)cc3)n2C)cc1 | inactive: -2.8%
Cc1cc(C(=O)N/N=C/c2c(C)n(C)c3ccccc23)n[nH]1 | inactive: -2.1%
O=S(=O)(Nc1c(F)cccc1F)c1ccc(Cl)nc1 | inconclusive: 0%
C=CCNC(=S)Nc1ccc2nc(C)c(C)nc2c1 | inconclusive: -39.9%
N#Cc1cccc(C(=O)Nc2ccccc2C(=O)NC2CC2)c1 | inconclusive: 0.7%
COc1ccc2c(=O)c3c(=O)n(Cc4ccccc4)c(C(C)C)nc3oc2c1 | inconclusive: 7.1%
CCS(=O)(=O)N1N=C(c2cccc(NS(C)(=O)=O)c2)CC1c1ccccc1 (configuration not stated) | active: 43.6%
O=C(CCN1C(=O)c2ccccc2C1=O)N1CCN(Cc2ccc(Cl)cc2Cl)CC1 | inconclusive: -176%
O=C1CNC(=S)N1c1nc2ccccc2s1 | active: 32.2%
CCn1c(=O)c(=O)[nH]c2cc(C(=O)Nc3ccc(S(=O)(=O)N4CCCC4)cc3)ccc21 | inconclusive: -7.7%
C=CCN1C(=O)C(=O)N(CC(=O)NCC(=O)Nc2ccc(F)c(F)c2F)C1=O | inconclusive: 2.5%
CCc1nnc(NS(=O)(=O)c2ccc(NC(=O)c3cccc(OC(F)(F)C(F)F)c3)cc2)s1 | inconclusive: -21.3%
O=C(c1ccccc1)c1cn(CC(=O)N2CCCc3ccccc32)c2ccccc12 | inactive: 1%
S=c1[nH]nc(-c2cccs2)n1C1CCCCC1 | inconclusive: -17.8%
Nc1c(C(=O)NCc2ccccc2)c2nc3ccccc3nc2n1-c1ccc2c(c1)OCO2 | inactive: 2.1%
Cn1c(=O)cc(OCCCC(=O)NC2CCCC2)c2ccccc21 | inconclusive: -24%
COc1ccccc1Cn1c(=S)[nH]c2ccc(Br)cc2c1=O | active: 30.8%
CC1(C)CC(NC(=O)c2cc(S(=O)(=O)N3CCOCC3)c(Cl)cc2Cl)CC(C)(C)N1 | inconclusive: -0.7%
